Drawing on paper PMC5388433, this text covers binding for one substance.

By UniProt entry, the sequences of proteins in these tests, tags left out.
UniProt P45973: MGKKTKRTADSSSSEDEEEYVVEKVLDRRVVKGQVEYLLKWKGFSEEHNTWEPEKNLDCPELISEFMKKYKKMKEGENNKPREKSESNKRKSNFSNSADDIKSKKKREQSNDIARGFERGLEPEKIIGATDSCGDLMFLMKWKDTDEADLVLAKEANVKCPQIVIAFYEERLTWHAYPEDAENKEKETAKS

The test addresses T1, purified full length FLAG-GFP-tagged KDM2A (WT) (human) (UniProt Q9Y2K7).
T1 sequence: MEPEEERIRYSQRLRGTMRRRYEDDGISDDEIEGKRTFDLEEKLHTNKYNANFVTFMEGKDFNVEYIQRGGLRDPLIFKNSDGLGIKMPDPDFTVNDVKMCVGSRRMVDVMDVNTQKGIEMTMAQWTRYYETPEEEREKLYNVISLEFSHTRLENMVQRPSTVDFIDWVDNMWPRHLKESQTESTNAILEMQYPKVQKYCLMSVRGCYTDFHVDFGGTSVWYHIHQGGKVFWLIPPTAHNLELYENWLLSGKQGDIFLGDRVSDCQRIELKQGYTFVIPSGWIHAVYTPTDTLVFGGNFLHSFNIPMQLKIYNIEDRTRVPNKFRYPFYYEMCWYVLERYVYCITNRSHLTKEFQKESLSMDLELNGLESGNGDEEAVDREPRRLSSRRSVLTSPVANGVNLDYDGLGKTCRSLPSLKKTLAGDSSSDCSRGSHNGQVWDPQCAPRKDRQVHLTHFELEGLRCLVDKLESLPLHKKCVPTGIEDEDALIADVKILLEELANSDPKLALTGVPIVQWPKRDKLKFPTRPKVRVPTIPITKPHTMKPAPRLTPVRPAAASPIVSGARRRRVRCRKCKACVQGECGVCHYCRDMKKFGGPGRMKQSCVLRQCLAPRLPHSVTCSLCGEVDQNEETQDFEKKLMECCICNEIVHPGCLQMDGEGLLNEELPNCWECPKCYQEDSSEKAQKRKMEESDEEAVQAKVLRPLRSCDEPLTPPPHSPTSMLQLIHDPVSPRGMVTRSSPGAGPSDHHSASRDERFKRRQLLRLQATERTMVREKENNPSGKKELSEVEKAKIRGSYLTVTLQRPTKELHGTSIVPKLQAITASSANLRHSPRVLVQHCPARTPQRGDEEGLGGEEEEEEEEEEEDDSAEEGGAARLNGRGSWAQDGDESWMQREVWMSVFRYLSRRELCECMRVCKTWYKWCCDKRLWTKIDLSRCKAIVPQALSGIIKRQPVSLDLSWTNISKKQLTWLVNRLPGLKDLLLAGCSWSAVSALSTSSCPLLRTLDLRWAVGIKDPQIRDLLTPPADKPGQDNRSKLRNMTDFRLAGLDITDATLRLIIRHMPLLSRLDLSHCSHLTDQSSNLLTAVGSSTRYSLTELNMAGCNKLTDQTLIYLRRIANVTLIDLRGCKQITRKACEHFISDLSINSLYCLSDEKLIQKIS
Description: pull-down; as a6 but nucleosomes with CpG-methylated 601-DNA (M.SssI), which does not bind KDM2A; 2 μg purified full length FLAG-GFP-KDM2A (WT or V801A/L803A) and 2 μg HP1α; both purified.

Results are given in words; binding and its absence hold for the method and conditions named. Some results given as binding are weak or reduced against the parent protein; the word gives no strength. Tags and fused reporters may be left off the sequences shown.

Consider “recombinant purified HP1α (WT) (from UniProt P45973 1-191)”, for which the binding result is on record as “binds”.
